# The whole screen tested about 310,000 compounds, of which about 2,200 (0.71%) showed an effect of 50% or more. The effect is printed as a negative number. The list shows a part of the results.
# Target: human ether-à-go-go-related gene (hERG) potassium channel (human, UniProt Q12809)
# Test: primary screen, population patch clamp on CHO cells stably expressing hERG
# Chain of human ether-à-go-go-related gene (hERG) potassium channel (Q12809 whole entry, looked up): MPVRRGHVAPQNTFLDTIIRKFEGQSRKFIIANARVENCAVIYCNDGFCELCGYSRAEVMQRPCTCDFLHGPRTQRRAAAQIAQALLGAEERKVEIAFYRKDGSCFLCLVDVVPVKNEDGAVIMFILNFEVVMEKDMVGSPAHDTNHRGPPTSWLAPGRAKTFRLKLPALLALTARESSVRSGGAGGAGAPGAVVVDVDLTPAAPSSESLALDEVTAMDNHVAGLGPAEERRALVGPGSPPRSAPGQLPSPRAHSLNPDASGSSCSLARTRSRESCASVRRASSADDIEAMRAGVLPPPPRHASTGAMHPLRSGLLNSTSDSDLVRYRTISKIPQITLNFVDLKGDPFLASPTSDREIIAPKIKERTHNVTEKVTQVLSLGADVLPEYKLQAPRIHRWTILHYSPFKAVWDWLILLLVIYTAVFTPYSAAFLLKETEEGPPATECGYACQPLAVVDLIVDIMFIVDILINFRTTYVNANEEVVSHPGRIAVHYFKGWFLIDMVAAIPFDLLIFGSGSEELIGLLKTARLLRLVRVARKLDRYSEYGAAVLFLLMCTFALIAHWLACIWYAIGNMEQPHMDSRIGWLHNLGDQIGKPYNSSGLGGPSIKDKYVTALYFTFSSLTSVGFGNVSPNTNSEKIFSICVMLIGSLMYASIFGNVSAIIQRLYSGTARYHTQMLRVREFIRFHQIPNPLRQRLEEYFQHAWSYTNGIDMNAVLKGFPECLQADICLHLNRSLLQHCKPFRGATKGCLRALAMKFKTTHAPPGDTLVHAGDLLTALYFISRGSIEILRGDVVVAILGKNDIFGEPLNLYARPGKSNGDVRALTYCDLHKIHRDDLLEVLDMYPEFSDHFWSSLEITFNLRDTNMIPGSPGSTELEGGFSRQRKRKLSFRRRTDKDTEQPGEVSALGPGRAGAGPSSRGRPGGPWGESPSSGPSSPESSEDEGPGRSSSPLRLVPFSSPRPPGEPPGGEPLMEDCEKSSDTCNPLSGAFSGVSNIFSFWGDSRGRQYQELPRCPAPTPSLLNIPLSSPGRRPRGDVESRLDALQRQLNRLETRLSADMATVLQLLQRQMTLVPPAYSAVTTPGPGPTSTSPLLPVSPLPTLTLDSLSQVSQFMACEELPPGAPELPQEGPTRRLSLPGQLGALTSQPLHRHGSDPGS
row,SMILES,"hERG current change (%, negative = inhibition) at 1uM [%]"
1,O=C(Nc1ccccc1)/C(=C\c1ccccc1)NC(=O)c1ccco1,12.1
2,CCCCc1nc2cc(C(=O)N3CCCCC3CCO)ccc2o1 (stereo not drawn),14.5
3,CSc1ccccc1NC(=O)c1ccc(C)o1,-6.12
4,CC(C)C(=O)N1CCN(c2ccc(NC(=O)c3cccs3)cc2Cl)CC1,11.2
5,COC(=O)c1sccc1NC(=S)Nc1ccccc1,-2.05
6,CCOc1cc(C2c3c(oc4ccccc4c3=O)C(=O)N2c2nccs2)ccc1O (stereo not drawn),11.3
7,Cc1cc(C(=O)OCC(=O)c2ccc(Br)s2)no1,1.95
8,Cc1ccc(S(=O)(=O)N2CCC(c3nnc(SCCN4CCCC4)n3C)CC2)cc1,18.1
9,Cc1ccc(-c2csc3ncn(CC(=O)O)c(=O)c23)cc1C,22.2
10,COc1ccc(NC(=O)C2CCN(c3nc(C)nc4c3CCC4)CC2)cc1,-9.37
11,Cc1ccc(C)c2c1[nH]c1ccccc12,16.6
12,Cc1ccc(C)c(S(=O)(=O)N2CCN(Cc3cc4c(cc3O)OCO4)CC2)c1,8.05
13,Cc1ccc(NC(=O)CSc2nnc(N)s2)c([N+](=O)[O-])c1,4.78
14,FCCCOc1ccc(/C=N/OCc2ccc(Cl)cc2)cc1,0.266
15,O=C1CCN(Cc2ccc(O)cc2)CCN1[C@H](CO)Cc1ccccc1,-2
16,Cc1cc(N2CCN(c3ccc(F)cc3)CC2)n2ncnc2n1,-14.8
17,COc1cc(OC)c(OC)cc1/C=C1\CCC(C2CCCC2)C1=O (stereo not drawn),-0.948
18,COc1ccccc1CN(Cc1cccnc1)S(=O)(=O)c1ccc(-n2cnnn2)c(OC)c1,-8.7
19,O=Cc1c(N2CCC3(CC2)OCCO3)nc2ccccn2c1=O,6.93
20,CSc1ccccc1NC(=O)CSCc1nc2sc(C)c(C)c2c(=O)[nH]1,7.38

row,SMILES,"hERG current change (%, negative = inhibition) at 1uM [%]"
1,COC(=O)c1ccc(C#Cc2ccccc2)o1,18.3
2,CCCOc1ccc(Cc2nc(N)nc(N)n2)cc1,15.6
3,CN(CC(=O)Nc1ccccc1C(F)(F)F)C(=O)CC1OC(=O)c2ccccc21 (stereo not drawn),9.22
4,NCC12CC3CC(C1)CC(CN)(C3)C2,4.9
5,COc1ccccc1CN(C)C(C)C(=O)Nc1cccc(C(C)=O)c1 (stereo not drawn),0.307
6,CC(C)(C)NC(=O)Cn1c(SCC(=O)NC2CC2)nc2ccccc21,5.13
7,N#Cc1ccccc1NC(=O)COC(=O)CCc1ccc(S(=O)(=O)N2CCCCC2)cc1,12.7
8,CCOC(=O)N1CCN(CCC(=O)Nc2cccc(Cl)c2C)CC1.Cl,13.8
9,CCc1ccccc1OCC(=O)Nc1cccc(S(=O)(=O)NC2=NCCC2)c1,10.4
10,O=C(CN(C(=O)c1ccc(Cl)cc1)N1C(=O)C2C3C=CC(C3)C2C1=O)c1cccs1 (stereo not drawn),8.89
11,Cc1ccc(C(=O)N2CCc3ccccc32)cc1,9.25
12,COc1cc(C(=O)OC2C[C@H]3CC[C@@H](C2)N3C)ccc1O (stereo partly drawn),5.84
13,CCNc1nc(C)c(CN(C(C)=O)c2ccccc2)nc1C#N,3.55
14,O=C(O)CN1C(=O)CC(c2ccccc2)CC1=O,14.9
15,CCn1nnnc1SCC(=O)NCc1ccco1,16.7
16,CC1CCCC(C)N1S(=O)(=O)c1ccc(Cl)cc1 (stereo not drawn),2.38
17,CCOc1ccc(NC(=O)CN(C)C(=O)CCSc2ccc(F)cc2)cc1OCC,5.75
18,O=S(=O)(Nc1cccc2nsnc12)c1ccccc1,5.89
19,Cc1ccc(N/C=C/C(=O)c2ccco2)c(O)c1,13
20,Cn1c(=O)c(S(=O)(=O)C(C)(C)C)c(O)c2ccccc21,9.76

row,SMILES,"hERG current change (%, negative = inhibition) at 1uM [%]"
1,CSc1ncccc1C(=O)Nc1nnc(C2CC2)s1,-0.0346
2,CC(C)Cn1c(-c2ccc(Br)o2)n[nH]c1=S,9.1
3,Cc1ccc2c(c1)C(c1ccccc1)=NCC(=O)N2,5.08
4,COc1ccccc1Nc1nnc(SCC(=O)N2CC(=O)Nc3ccccc32)s1,9.13
5,CCOc1ccc(C(=O)N2CCN(c3ccccc3)CC2)cc1OCC,1.55
6,COc1ccc(CSc2nnnn2C)cc1F,4.32
7,Cc1c(NS(=O)(=O)N2CCCC2)c(=O)n(-c2ccccc2)n1C,2.13
8,O=C1OCC2=C1C(c1ccc(F)cc1)CC(=O)N2c1ccc(F)cc1 (stereo not drawn),3.76
9,O=C1CCC(c2ccccc2)N1C(=O)c1cccnc1 (stereo not drawn),-0.17
10,O=C(NC1CCCCCCC1)C1c2ccccc2C(=O)N1Cc1cccs1 (stereo not drawn),9.23
11,COc1ccccc1/C=C/CN1CCN(c2ccccc2)CC1,8.89
12,CN(C)c1ccc(C(c2ccc(N(C)C)cc2)c2ccc([N+](=O)[O-])cc2)cc1,10.9
13,CCc1nc(SCC(=O)OC(C)C)c2ccccc2n1,5.06
14,COc1cccc(N2CCN(C(=O)c3cc4c(s3)CCCCC4)CC2)c1,4.44
15,COC(=O)C1=C(C(=O)OC)[C@@H]2Nc3ccccc3[C@@]23C[C@@H](C(=O)OC)N=C3N1,12.6
16,CCCCCCCCCCC(=O)NNC(=O)c1c(O)c2ccccc2n(CC)c1=O,9.95
17,CSc1nc(N(C)C)nc(N2CC(=O)N(CCNS(=O)(=O)c3ccc(C)cc3)C2=N)n1,17.6
18,CC1CCc2c(sc(NC(=O)CSc3ncnc4c3cnn4-c3ccccc3Cl)c2C#N)C1 (stereo not drawn),14.6
19,COc1ccccc1N1CSC2=C(C#N)C(c3ccc(SC)cc3)CC(=O)N2C1 (stereo not drawn),14.4
20,CC(OC(=O)c1cccc(-n2cnnn2)c1)C(=O)Nc1ccc(F)cc1Cl (stereo not drawn),-2.17

# — publication PMC4336329 (PLoS ONE, 2015)
